PMC4336329 (PLoS ONE, 2015)
Out of some 310,000 compounds screened, about 14,000 (4.5%) showed an effect of 50% or more. Effects have a minus sign here. Some of the results follow.

The compounds below were run against human ether-à-go-go-related gene (hERG) potassium channel (human, UniProt Q12809) (assay: primary screen, population patch clamp on CHO cells stably expressing hERG).
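Also: peak tail current of the secondary pulse compared with the same well before compound.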

human ether-à-go-go-related gene (hERG) potassium channel, sequence (Q12809 whole entry, looked up): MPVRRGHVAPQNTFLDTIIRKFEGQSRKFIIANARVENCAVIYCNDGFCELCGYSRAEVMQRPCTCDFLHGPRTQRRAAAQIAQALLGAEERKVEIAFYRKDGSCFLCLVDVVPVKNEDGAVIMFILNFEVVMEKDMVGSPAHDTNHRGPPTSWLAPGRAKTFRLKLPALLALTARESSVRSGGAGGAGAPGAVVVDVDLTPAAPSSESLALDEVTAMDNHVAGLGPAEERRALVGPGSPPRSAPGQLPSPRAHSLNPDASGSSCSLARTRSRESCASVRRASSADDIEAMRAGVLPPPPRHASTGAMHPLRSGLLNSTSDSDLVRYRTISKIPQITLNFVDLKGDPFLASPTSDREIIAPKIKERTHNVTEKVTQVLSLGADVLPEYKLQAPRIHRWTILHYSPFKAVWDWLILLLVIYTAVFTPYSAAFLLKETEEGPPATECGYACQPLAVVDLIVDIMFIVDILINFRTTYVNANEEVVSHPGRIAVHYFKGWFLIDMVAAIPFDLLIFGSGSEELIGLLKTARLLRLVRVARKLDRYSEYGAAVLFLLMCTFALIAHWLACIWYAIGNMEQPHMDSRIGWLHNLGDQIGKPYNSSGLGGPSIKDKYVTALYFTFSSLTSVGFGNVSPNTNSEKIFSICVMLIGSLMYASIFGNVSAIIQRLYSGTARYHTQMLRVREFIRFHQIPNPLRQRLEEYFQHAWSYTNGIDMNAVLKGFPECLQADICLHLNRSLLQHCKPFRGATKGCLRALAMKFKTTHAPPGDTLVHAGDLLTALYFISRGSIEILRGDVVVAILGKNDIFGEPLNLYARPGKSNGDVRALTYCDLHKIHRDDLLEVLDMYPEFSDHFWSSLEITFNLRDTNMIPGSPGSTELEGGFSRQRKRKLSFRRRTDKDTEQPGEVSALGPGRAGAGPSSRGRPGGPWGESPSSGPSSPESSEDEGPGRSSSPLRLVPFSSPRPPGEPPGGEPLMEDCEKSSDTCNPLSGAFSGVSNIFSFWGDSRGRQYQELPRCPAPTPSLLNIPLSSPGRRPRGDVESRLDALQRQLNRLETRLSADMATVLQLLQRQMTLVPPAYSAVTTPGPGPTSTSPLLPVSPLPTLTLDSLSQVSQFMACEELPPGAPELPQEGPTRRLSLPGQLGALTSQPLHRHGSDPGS

In order of rising “hERG current change (%, negative = inhibition) at 10uM” value:
1. CCCCCCCNC(=O)C1(CC2CC(c3cccc(Br)c3)=NO2)CCN(C(=O)CCCCCBr)CC1 (stereo not drawn)  -82.7%
2. CN1CCN(Cc2ccccc2Sc2ccccc2)CC1.O=C(O)/C=C\C(=O)O  -82%
3. N#Cc1ccc(CSc2nnc(-c3cccs3)n2-c2ccccc2)cc1  -72.7%
4. COc1ccc(N2CCN(C(=O)COC(=O)CCOc3ccccc3C)CC2)cc1  -62.5%
5. Cc1ccc(S(=O)(=O)NCc2ccccc2)cc1C(=O)N1CC(C)CC(C)C1 (stereo not drawn)  -41.7%
6. O=C(Nc1ccc(-c2cscn2)cc1)C1CCCN(Cc2ccccc2)C1 (stereo not drawn)  -32.1%
7. c1ccc2c(NCC3CCCO3)nc(-c3ccncc3)nc2c1 (stereo not drawn)  -14.6%
8. Cc1ccc(-c2cc(C(=O)NCc3ccco3)c3ccccc3n2)o1  -9.18%
9. Cc1ccc(CNC(=O)C2=NNC(=O)CC2)cc1  -8.66%
10. Cc1noc(C)c1COc1ccc(C(=O)OCC(=O)Nc2ccc(S(N)(=O)=O)cc2)cc1  -6.61%
11. CCOC(=O)N1CCC(Nc2nc3ccccc3n3cnnc23)CC1  -4.52%
12. CN(Cc1ccccc1)C(=O)CCC1CCN(C(=O)CCC(F)(F)F)CC1  -4.45%
13. Cc1ccc(-n2c(C)cc(C(=O)CSc3nncs3)c2C)cc1  -4.27%
14. Cc1ccc(C(C(=O)NC2CCCC2)N(Cc2ccc(F)cc2)C(=O)c2csnn2)o1 (stereo not drawn)  -2.84%
15. Cc1ccc2nc(SC(C(=O)Nc3ccc(F)cc3)c3ccccc3)[nH]c2c1 (stereo not drawn)  -1.38%
16. Cc1cc(C)c(S(=O)(=O)N2CCN(C(=O)C(C)Cn3cncn3)CC2)c(C)c1 (stereo not drawn)  -1.37%
17. CCOC(=O)c1c(C)c(C(=O)Nc2ccc3c(c2)OCCO3)c(C)n1C  -1.09%
18. COc1ccc(S(=O)(=O)N2CCOC2CNC(=O)C(=O)NCCCN2CCOCC2)cc1C (stereo not drawn)  -0.982%
19. O=C1c2cccnc2C(O)N1Cc1ccc(F)cc1 (stereo not drawn)  0.629%
20. Cc1nnsc1-c1c(C(=O)Oc2ccccc2)c(C)nn1-c1ccccc1  2.16%
21. COc1ccc(-c2noc(CN(C)C(=O)c3ccco3)n2)cc1  2.58%
22. O=C1/C(=C/c2cccs2)SC(=S)N1N1CCOCC1  5.26%
23. Cc1nc(-c2noc(-c3cccc(Cl)c3)n2)c(C(F)(F)F)o1  5.66%
24. Cc1cccc(C)c1NC(=O)c1cnn(-c2ccccc2)c1C  6.6%
25. COc1cc(CCC(=O)OCC(=O)Nc2ccccc2C#N)cc(OC)c1OC  9.45%
26. O=C(Nc1nc2c(s1)CCCC2)c1ccc2ncsc2c1  9.54%
27. CCn1nc(C)c(/C=C2\CCCC3=C2OC(N)=C(C#N)C3c2c(C)nn(CC)c2C)c1C (stereo not drawn)  10.1%
28. C#CCOCCOCCOCCNc1nc(N2CCN(C(=O)CCCCCCCCCCNC(=O)Cn3cc(CCCCCN)nn3)CC2)nc(N2CCN(C(=O)CCCCCCCCCCNC(=O)Cn3cc(C[C@@H](C)O)nn3)CC2)n1  11.2%
29. COc1ccc(NC(=O)CN(c2ccc(Cl)cc2)S(C)(=O)=O)cc1OC  11.2%
30. O=C(Cc1ccc(Cl)cc1)Nc1ccccc1Sc1ccccc1  11.5%
31. CCOC(=O)CSc1nc2c(c(=O)n1-c1ccc(OCC)cc1)SCC2  12.6%
32. O=C(CSc1n[nH]c(=O)n1-c1ccc2c(c1)OCCO2)Nc1ccccc1  13%
33. COc1ccc(C(=O)Nc2ccc(N3CCOCC3)cc2)cc1S(=O)(=O)NC1CCCC1  13.1%
34. CC(=O)Nc1ccc(Oc2cc(N)cc([N+](=O)[O-])c2)cc1  15.7%
35. Cc1c(Cl)ccc2c1NC(=O)[C@]21N[C@@H](Cc2ccccc2)[C@H]2C(=O)N(c3ccc(F)cc3)C(=O)[C@H]21  15.9%
36. Cc1ccccc1NC(=O)Cc1nc(COC(=O)CCOc2ccccc2)cs1  16.2%
37. CCn1c(SCC(=O)NC2CCCC2)nnc1-c1ccncc1  16.4%
38. CCOC(=O)CCn1nnc(N)n1  16.5%
39. O=C(NNC(=O)c1ccco1)c1csc(N2CCOCC2)n1  16.7%
40. CCOP(=O)(OCC)c1ccccc1OCP(C)(=O)COc1ccccc1P(=O)(OCC)OCC  19.4%
41. O=C(Cc1ccc(S(=O)(=O)N2CCOCC2)s1)Nc1cc(C(F)(F)F)cc(C(F)(F)F)c1  19.4%
42. O=C(CS(=O)(=O)c1ccc(Cl)cc1)Nc1nnc(-c2cccs2)o1  28.5%
